Data on three compounds can be found in US5858992A, “Non-reducing saccharides, their preparation and use” (Kabushiki Kaisha Hayashibara Seibutsu Kagaku Kenkyujo, priority 1995, dated 1999).

The subject of data set [1] is Bifidobacterium animalis JCM 1190. As to the kind of experiment: Assimilation test by intestinal microorganism. It counts as cell-based. To be noted: 0.5 w/v % saccharide in PYF broth, 37° C., 96 hours; free of sugar: -.
Data set [2] concerns Streptococcus sobrinus ATCC 27351. The data set is described as follows: Acid formation by dental caries-inducing microorganisms. The conditions noted are these: for pH at each fermentation time (min): living wet cells, 0.02M saccharide, Stephen buffer pH 7.0, 37° C.
For data set [3], the system named is bifid bacteria. The data set is described as follows: Influence on growth-promoting activity for bifid bacteria in vivo (healthy volunteers, feces). The conditions noted are these: for Percentage (%) of bifid bacteria to the total microorganisms: mean value; for pH of feces: mean ± SD. More on the design: species or system human. The procedure: The weight of daily feces before and after the 14-day administration tests, the relative change of feces' weight, the feces' pH, the total number of microorganisms per g of feces, the percentage of the number of bifid bacteria to the total number of microorganisms in feces, and the relative change of the total number of bifid bacteria were measured, followed by calculating the mean value of the five volunteers. Among these measurements, the total number of microorganisms was determined in accordance with the method as reported in "A Color Atlas of Anaerobic Bacteria", pp.53-65 (1984), edited by Tomotari MITSUOKA, published by Kabushiki Kaisha Sobunsha, Tokyo, Japan (1984): The colonies grown in 13 different types of media excluding M10 medium were judged for which genus they belong to and counted for cells. The cell count obtained with a specific medium, which gave the highest number of microorganisms for each genus, was determined to be a real cell count. The total cell count of microorganisms of all the genera was determined to be the total number of microorganisms in each volunteer's feces.

Data set [4] in a line: in vitro. To be noted: small intestinal mucosa enzyme.
Data set [5] concerns Bifidobacterium breve JCM 1192. As to the kind of experiment: Assimilation test by intestinal microorganism. It counts as cell-based. To be noted: 0.5 w/v % saccharide in PYF broth, 37° C., 96 hours; free of sugar: -.
The subject of data set [6] is Bifidobacterium adolescentis JCM 1275. The data set is described as follows: Assimilation test by intestinal microorganism. To be noted: 0.5 w/v % saccharide in PYF broth, 37° C., 96 hours; free of sugar: -. The format is cell-based.
The test system of data set [7] is Bifidobacterium infantis JCM 1222. As to the kind of experiment: Assimilation test by intestinal microorganism. It counts as cell-based. To be noted: 0.5 w/v % saccharide in PYF broth, 37° C., 96 hours; free of sugar: -.
A short description of data set [8]: Maillard reaction (coloration with glycine). It counts as physicochemical.
The target of data set [9] is T1, Salivary amylase (Homo sapiens, UniProt P0DUB6).
T1 sequence (P0DUB6 16-511): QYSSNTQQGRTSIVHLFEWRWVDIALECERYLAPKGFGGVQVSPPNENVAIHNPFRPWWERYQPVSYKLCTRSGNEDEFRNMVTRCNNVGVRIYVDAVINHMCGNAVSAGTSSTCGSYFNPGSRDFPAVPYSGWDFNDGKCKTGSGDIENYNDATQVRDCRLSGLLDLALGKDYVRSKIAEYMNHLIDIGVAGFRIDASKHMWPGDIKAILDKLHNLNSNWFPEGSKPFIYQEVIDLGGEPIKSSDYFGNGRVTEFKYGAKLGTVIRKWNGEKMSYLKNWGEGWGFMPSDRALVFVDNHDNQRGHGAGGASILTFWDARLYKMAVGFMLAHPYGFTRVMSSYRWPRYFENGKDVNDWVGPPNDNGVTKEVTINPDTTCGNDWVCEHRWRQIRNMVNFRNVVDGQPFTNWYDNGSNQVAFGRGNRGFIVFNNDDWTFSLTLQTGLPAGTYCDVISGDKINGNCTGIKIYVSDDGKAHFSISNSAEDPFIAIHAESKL
As to the kind of experiment: in vitro.

In data set [10] the test system is Lactobacillus fermentum IFO 3959. The data set is described as follows: Assimilation test by intestinal microorganism. It counts as cell-based. To be noted: 0.5 w/v % saccharide in PYF broth, 37° C., 96 hours; free of sugar: -.
The test system of data set [11] is Bifidobacterium bifidum JCM 1255. The data set is described as follows: Assimilation test by intestinal microorganism. The format is cell-based. To be noted: 0.5 w/v % saccharide in PYF broth, 37° C., 96 hours; free of sugar: -.
Data set [12] concerns glucosyltransferase. The data set is described as follows: Inhibition of insoluble glucan formation by glucosyltransferase from dental caries-inducing microorganism. The format is biochemical, Streptococcus sobrinus strain (ATCC 27351). How it is done:
To a mixture solution consisting of one ml of one w/v % sucrose solution, one ml of one w/v % of a test saccharide solution, and 1.5 ml of 0.1M phosphate buffer (pH 6.8) was added 0.5 ml solution containing a crude glucosyltransferase specimen in a total protein content of 10 mg, and the mixture solution was placed in a small test tube which was then fixed and slanted to give a grade 30 degrees and allowed to react at 37° C. for 16 hours. The reaction mixture was transferred gently to another test tube and mixed with a solution obtained by washing carefully with 4 ml water the remaining substances adhered to the inner walls of the small test tube, and the mixture solution was centrifuged to obtain a precipitate as a non-adsorbed glucan. The amounts of the adsorbed- and non-adsorbed glucans thus obtained were respectively quantified by the anthrone-sulfuric acid method, and the total amount of them was regarded as the amount of the formed insoluble glucans. As a control system, a reaction system using water in place of the test saccharide solution, i.e. a reaction system using sucrose as a saccharide, was provided.

The nature of data set [13]: in vitro. To be noted: gastric acid.
In data set [14] the test system is Lactobacillus plantarum IFO 3070. The data set is described as follows: Assimilation test by intestinal microorganism. The format is cell-based. The conditions noted are these: 0.5 w/v % saccharide in PYF broth, 37° C., 96 hours; free of sugar: -.
For data set [15], the system named is Enzyme from small intestinal mucus membrane.
The nature of data set [16]: Solubility in solvent. The conditions noted are these: water, 0.1N NaOH and 0.1N HCl.
The mark [17] stands for this setting: After 10 g orally daily for 14 days, before = 100.
Where [18] appears, read: After 10 g orally daily for 14 days.

For `OC[C@H]1O[C@H](OC[C@H]2O[C@H](OC[C@H]3O[C@H](O[C@H]4O[C@H](CO)[C@@H](O)[C@H](O)[C@H]4O)[C@H](O)[C@@H](O)[C@@H]3O)[C@H](O)[C@@H](O)[C@@H]2O)[C@H](O)[C@@H](O)[C@@H]1O` [α-Isomaltotriosyl α-glucoside, O-α-D-glucopyranosyl-(1→6)-O-α-D-glucopyranosyl-(1→6) α-D-glucopyranosyl α-D-glucopyranoside], the “Judgement of assimilation (turbidity at 750 nm, ×5)” value in data set [1] is listed as “+++ (0.3 or higher)”; in [5], “+++ (0.3 or higher)”; in data set [6] it was “+++ (0.3 or higher)”; in data set [7], “++ (0.2 or higher but less than 0.3)”; in data set [10], “- (Less than 0.1)”; in data set [11], “++ (0.2 or higher but less than 0.3)”. The “Judgement of assimilation (turbidity at 750 nm, ×5)” value in [14] was “- (Less than 0.1)”. In [2], the “pH reduction / acid fermentation, in words” value is “substantially free of acid fermentation”. The “pH at each fermentation time (min)” value in [2] (0 min) and in [2] (5 min) was 7.0 throughout. For the same compound, in data set [3] (oral, human), the “Growth promotion of bifid bacteria when orally administered to human, in words” value was “exert an effect to promote the growth of bifid bacteria”. The metabolised in data set [4] was 8.8%; in data set [9] it was 0%. For the same compound, the “Maillard reaction, judgement in words” value in data set [8] is recorded as “substantially free from the Maillard reaction”. In addition, in data set [12], the “Inhibition of the formation of insoluble glucans, in words” value is “strongly inhibited the formation of insoluble glucans”. Moreover, the “Inhibitory percentage (%) on insoluble glucans formation” value in [12] (sucrose plus test saccharide (one ml of one w/v % each), 37° C., 16 hours, vs sucrose alone) is reported as 83.9%. The degraded in data set [13] was found to be 0%. Moreover, the “Digestibility, judgement in words” value in [15] is on record as “relatively-low in digestibility”.

`OC[C@H]1O[C@H](OC[C@H]2O[C@H](O[C@H]3O[C@H](CO[C@H]4O[C@H](CO)[C@@H](O)[C@H](O)[C@H]4O)[C@@H](O)[C@H](O)[C@H]3O)[C@H](O)[C@@H](O)[C@@H]2O)[C@H](O)[C@@H](O)[C@@H]1O` [α-Isomaltosyl α-isomaltoside, O-α-D-glucopyranosyl -(1→6)-α-D-glucopyranosyl-O-α-D-glucopyranosyl-(1→6) -α-D-glucopyranoside]: the “Relative changes of bifid bacteria (total cell count)” value (shortened to “Relative changes of bifid bacteria”) in data set [3] (setting [17]) was determined as 256. For the same compound, in data set [3] (setting [18]), the “Percentage (%) of bifid bacteria to the total microorganisms” value was determined as 25.0% and the pH of feces stood at 5.9± 0.3. In addition, the “Relative changes of bifid bacteria” value in [3] ([…]) is on record as 100. In [16], the Solubility in solvent entry was “Readily soluble”.

As to `OC[C@H]1O[C@H](OC[C@H]2O[C@H](O[C@H]3O[C@H](CO)[C@@H](O)[C@H](O)[C@H]3O)[C@H](O)[C@@H](O)[C@@H]2O)[C@H](O)[C@@H](O)[C@@H]1O` [O-α-D-glucopyranosyl -(1→6)-α-D-glucopyranosyl α-D-glucopyranoside], in data set [3] (setting [17]), the “Relative changes of bifid bacteria” value is 231 and the “Relative changes of feces' weight” value stood at 112. Further, in data set [3] (setting [18]), the “Percentage (%) of bifid bacteria to the total microorganisms” value is 24.5% and the pH of feces came out at 6.0± 0.4. Also, in [3] ([…]), the “Relative changes of bifid bacteria” value is given as 100 and the “Relative changes of feces' weight” value is 100.
